{"source": "the supplement of paper PMC4604168 (melanoma cell lines)", "note": "Some of the results follow. Single values are uncertain, as repeats are few or missing.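 Also: cells treated in 1,536-well plates, then fixed and DAPI-stained, with nuclei counted from automated high-throughput microscope images.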"}
{"tested_on": "LB2518-MEL", "experiment": "cell count relative to DMSO control; higher = more viable cells", "conditions": "library dose: standard library concentration; 72 h", "units": {"cell count": "%"}}
{"smiles": "Cn1cnc2c(F)c(Nc3ccc(Br)cc3Cl)c(C(=O)NOCCO)cc21", "note": "[selumetinib] + COc1ccc(COc2ccc(Cc3cnc(N)nc3N)cc2OC)cc1 [GW2580] (first compound 0.075 µM, partner dose 5 µM)", "cell count": 50.9}
{"smiles": "C[C@]1(O)C[C@@H](c2nc(-c3ccc4ccc(-c5ccccc5)nc4c3)c3c(N)nccn32)C1", "note": "+ Cn1c(=O)n(-c2ccc(C(C)(C)C#N)cc2)c2c3cc(-c4cnc5ccccc5c4)ccc3ncc21 [NVP-BEZ235] (first compound 2 µM, partner dose 0.02 µM)", "cell count": 64.7}
{"smiles": "Cn1cnc2c(F)c(Nc3ccc(Br)cc3Cl)c(C(=O)NOCCO)cc21", "note": "[selumetinib] + O=C(O)c1ccc(-c2c[nH]c3ncc(-c4ccccc4)cc23)cc1C1CCCC1 [GSK650394] (first compound 0.075 µM, partner dose 0.8 µM)", "cell count": 44.9}
{"smiles": "COc1cc([C@@H]2c3cc4c(cc3[C@@H](O[C@@H]3O[C@@H]5CO[C@@H](C)O[C@H]5[C@H](O)[C@H]3O)[C@H]3COC(=O)[C@H]23)OCO4)cc(OC)c1O", "note": "[etoposide] + COc1ccc2c(c1)CCC1C2CCC2(C)C(NCCCCCCN3C(=O)C=CC3=O)CCC12 [U73122] (first compound 0.1 µM, partner dose 2 µM)", "cell count": 94.9}
{"smiles": "COc1cc([C@@H]2c3cc4c(cc3[C@@H](O[C@@H]3O[C@@H]5CO[C@@H](C)O[C@H]5[C@H](O)[C@H]3O)[C@H]3COC(=O)[C@H]23)OCO4)cc(OC)c1O", "note": "[etoposide] + COc1ccc(-c2ccc3c(N4CCOCC4)nc(N4C[C@@H](C)O[C@@H](C)C4)nc3n2)cc1CO [KU0063794] (first compound 0.1 µM, partner dose 0.1 µM)", "cell count": 85}
{"smiles": "COc1cc([C@@H]2c3cc4c(cc3[C@@H](O[C@@H]3O[C@@H]5CO[C@@H](C)O[C@H]5[C@H](O)[C@H]3O)[C@H]3COC(=O)[C@H]23)OCO4)cc(OC)c1O", "note": "[etoposide] + Cc1cc(N2CCOCC2)cc2[nH]c(-c3c(NC[C@@H](O)c4cccc(Cl)c4)cc[nH]c3=O)nc12 [BMS536924] (first compound 0.1 µM, partner dose 1 µM)", "cell count": 98.8}
{"smiles": "Cn1cnc2c(F)c(Nc3ccc(Br)cc3Cl)c(C(=O)NOCCO)cc21", "note": "[selumetinib] + CN1CCN(c2ccc3nc(-c4c(N)c5c(F)cccc5[nH]c4=O)[nH]c3c2)CC1 [Dovitinib] (first compound 0.075 µM, partner dose 0.5 µM)", "cell count": 31}
{"smiles": "C[C@]1(O)C[C@@H](c2nc(-c3ccc4ccc(-c5ccccc5)nc4c3)c3c(N)nccn32)C1", "note": "+ O=S(=O)(c1ccccc1)N(CC(F)(F)F)c1ccc(C(O)(C(F)(F)F)C(F)(F)F)cc1 [T0901317] (first compound 2 µM, partner dose 7 µM)", "cell count": 96.7}
{"tested_on": "LOXIMVI", "experiment": "cell count relative to DMSO control; melanoma cells; higher = more viable cells", "conditions": "library dose: standard library concentration; 72 h", "units": {"cell count": "%"}}
{"smiles": "COc1cc([C@@H]2c3cc4c(cc3[C@@H](O[C@@H]3O[C@@H]5CO[C@@H](C)O[C@H]5[C@H](O)[C@H]3O)[C@H]3COC(=O)[C@H]23)OCO4)cc(OC)c1O", "note": "[etoposide] + NC(=O)Nc1cc(-c2cccc(F)c2)sc1C(=O)N[C@H]1CCCNC1 [AZD7762] (first compound 0.1 µM, partner dose 0.1 µM)", "cell count": 79.5}
{"smiles": "CCN(CC)CCNC(=O)c1c(C)[nH]c(/C=C2\\C(=O)Nc3ccc(F)cc32)c1C", "note": "[sunitinib] + Nc1ccn([C@@H]2O[C@H](CO)[C@@H](O)C2(F)F)c(=O)n1 [gemcitabine] (first compound 2 µM, partner dose 0.002 µM)", "cell count": 155}
{"smiles": "C[C@]1(O)C[C@@H](c2nc(-c3ccc4ccc(-c5ccccc5)nc4c3)c3c(N)nccn32)C1", "note": "+ O=C(O)c1ccc2c(c1)nc(Nc1cccc(Cl)c1)c1ccncc12 [CX4945] (first compound 2 µM, partner dose 2 µM)", "cell count": 41.7}
{"smiles": "COc1cc([C@@H]2c3cc4c(cc3[C@@H](O[C@@H]3O[C@@H]5CO[C@@H](C)O[C@H]5[C@H](O)[C@H]3O)[C@H]3COC(=O)[C@H]23)OCO4)cc(OC)c1O", "note": "[etoposide] + CS(=O)(=O)c1ccc(C(=O)Nc2ccc(Cl)c(-c3ccccn3)c2)c(Cl)c1 [vismodegib] (first compound 0.1 µM, partner dose 5 µM)", "cell count": 67.6}
{"smiles": "Cn1cnc2c(F)c(Nc3ccc(Br)cc3Cl)c(C(=O)NOCCO)cc21", "note": "[selumetinib] + COC(=O)c1sccc1S(=O)(=O)Nc1ccc(Nc2ccccc2)cc1OC [GSK0660] (first compound 0.075 µM, partner dose 5 µM)", "cell count": 112}
{"smiles": "CCN(CC)CCNC(=O)c1c(C)[nH]c(/C=C2\\C(=O)Nc3ccc(F)cc32)c1C", "note": "[sunitinib] + COc1cc(Nc2ncc(F)c(Nc3ccc4c(n3)NC(=O)C(C)(C)O4)n2)cc(OC)c1OC [Tamatinib] (first compound 2 µM, partner dose 2 µM)", "cell count": 30.7}
{"smiles": "Cn1cnc2c(F)c(Nc3ccc(Br)cc3Cl)c(C(=O)NOCCO)cc21", "note": "[selumetinib] + CC(C)(C)c1cnc(CSc2cnc(NC(=O)C3CCNCC3)s2)o1 [SNS-032] (first compound 0.075 µM, partner dose 0.05 µM)", "cell count": 76.5}
{"smiles": "C[C@]1(O)C[C@@H](c2nc(-c3ccc4ccc(-c5ccccc5)nc4c3)c3c(N)nccn32)C1", "note": "+ CCN(CC)CCNC(=O)c1c(C)[nH]c(/C=C2\\C(=O)Nc3ccc(F)cc32)c1C [sunitinib] (first compound 2 µM, partner dose 2 µM)", "cell count": 95.9}
{"smiles": "COc1cc([C@@H]2c3cc4c(cc3[C@@H](O[C@@H]3O[C@@H]5CO[C@@H](C)O[C@H]5[C@H](O)[C@H]3O)[C@H]3COC(=O)[C@H]23)OCO4)cc(OC)c1O", "note": "[etoposide] + O=C(Nc1cccc(Cl)c1)Nc1ncc(CCNc2ncnc3ccsc23)s1 [SNS314] (first compound 0.1 µM, partner dose 0.004 µM)", "cell count": 74.2}
{"smiles": "CCN(CC)CCNC(=O)c1c(C)[nH]c(/C=C2\\C(=O)Nc3ccc(F)cc32)c1C", "note": "[sunitinib] + CCCS(=O)(=O)Nc1ccc(F)c(C(=O)c2c[nH]c3ncc(Cl)cc23)c1F [PLX4720] (first compound 2 µM, partner dose 0.4 µM)", "cell count": 165}
{"smiles": "C[C@]1(O)C[C@@H](c2nc(-c3ccc4ccc(-c5ccccc5)nc4c3)c3c(N)nccn32)C1", "note": "+ Nc1cccc2c1CN(C1CCC(=O)NC1=O)C2=O [lenalidomide] (first compound 2 µM, partner dose 5 µM)", "cell count": 79.6}
{"smiles": "Cn1cnc2c(F)c(Nc3ccc(Br)cc3Cl)c(C(=O)NOCCO)cc21", "note": "[selumetinib] + CCc1ccc(CCOc2ccc(CC3SC(=O)NC3=O)cc2)nc1 [pioglitazone] (first compound 0.075 µM, partner dose 10 µM)", "cell count": 118}
{"smiles": "CCN(CC)CCNC(=O)c1c(C)[nH]c(/C=C2\\C(=O)Nc3ccc(F)cc32)c1C", "note": "[sunitinib] + CCCCCCCCc1ccc(CCC(N)(CO)CO)cc1 [fingolimod] (first compound 2 µM, partner dose 10 µM)", "cell count": 22.6}
{"smiles": "CCN(CC)CCNC(=O)c1c(C)[nH]c(/C=C2\\C(=O)Nc3ccc(F)cc32)c1C", "note": "[sunitinib] + NCC(=O)Nc1ccc(-n2nc(C(F)(F)F)cc2-c2ccc3c(ccc4ccccc43)c2)cc1 [OSU03012] (first compound 2 µM, partner dose 5 µM)", "cell count": 74.8}
{"smiles": "Cn1cnc2c(F)c(Nc3ccc(Br)cc3Cl)c(C(=O)NOCCO)cc21", "note": "[selumetinib] + O=C(O)C(=O)Nc1sc2c(c1C(=O)O)CCNC2 [TCS401] (first compound 0.075 µM, partner dose 8.33333 µM)", "cell count": 104}
{"smiles": "COc1cc([C@@H]2c3cc4c(cc3[C@@H](O[C@@H]3O[C@@H]5CO[C@@H](C)O[C@H]5[C@H](O)[C@H]3O)[C@H]3COC(=O)[C@H]23)OCO4)cc(OC)c1O", "note": "[etoposide] + C=C(c1ccc(C(=O)O)cc1)c1cc2c(cc1C)C(C)(C)CCC2(C)C [Bexarotene] (first compound 0.1 µM, partner dose 10 µM)", "cell count": 125}
{"smiles": "C[C@]1(O)C[C@@H](c2nc(-c3ccc4ccc(-c5ccccc5)nc4c3)c3c(N)nccn32)C1", "note": "+ C=C(c1ccc(C(=O)O)cc1)c1cc2c(cc1C)C(C)(C)CCC2(C)C [Bexarotene] (first compound 2 µM, partner dose 10 µM)", "cell count": 103}
{"smiles": "C[C@]1(O)C[C@@H](c2nc(-c3ccc4ccc(-c5ccccc5)nc4c3)c3c(N)nccn32)C1", "note": "+ NC1(c2ccc(-c3nc4ccn5c(=O)[nH]nc5c4cc3-c3ccccc3)cc2)CCC1 [MK2206] (first compound 2 µM, partner dose 2 µM)", "cell count": 59}
{"smiles": "COc1cc([C@@H]2c3cc4c(cc3[C@@H](O[C@@H]3O[C@@H]5CO[C@@H](C)O[C@H]5[C@H](O)[C@H]3O)[C@H]3COC(=O)[C@H]23)OCO4)cc(OC)c1O", "note": "[etoposide] + Cn1c(Nc2ccc(C(F)(F)F)cc2)nc2cc(Oc3ccnc(-c4ncc(C(F)(F)F)[nH]4)c3)ccc21 [CHIR265] (first compound 0.1 µM, partner dose 0.4 µM)", "cell count": 72.2}
{"smiles": "Cn1cnc2c(F)c(Nc3ccc(Br)cc3Cl)c(C(=O)NOCCO)cc21", "note": "[selumetinib] + O=c1cc(-c2cccc3c2Sc2ccccc2S3)oc(N2CCOCC2)c1 [KU55933] (first compound 0.075 µM, partner dose 5 µM)", "cell count": 94.8}
